# The supplement of paper PMC4604168 (melanoma cell lines)
# The other results are listed elsewhere or left out. Most values come without repeats; read them as rough.
# Assays:
# Test in all cases: cell count relative to DMSO control; melanoma cells; higher = more viable cells
# Details in all cases: library dose: low library concentration; 72 h
# [1] = system: WM115
# [2] = system: WM1716
# [3] = system: WM1745
# [4] = system: WM3526
# [5] = system: WM3619
# [6] = system: WM451Lu
# 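Further: cell number obtained by counting DAPI-stained nuclei in high-throughput microscope images with image analysis software, screen run in 1,536-well plates.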
Structure (SMILES),cell count [1],cell count [2],cell count [3],cell count [4],cell count [5],cell count [6]
"C=C(c1ccc(C(=O)O)cc1)c1cc2c(cc1C)C(C)(C)CCC2(C)C [Bexarotene] + Nc1cccc2c1CN(C1CCC(=O)NC1=O)C2=O [lenalidomide] (first compound 2 µM, partner dose 1 µM)",102%,88.2%,89.5%,99.1%,119%,81.5%
"CS(=O)(=O)c1ccc(C(=O)Nc2ccc(Cl)c(-c3ccccn3)c2)c(Cl)c1 [vismodegib] + O=C(O)c1ccc2c(c1)nc(Nc1cccc(Cl)c1)c1ccncc12 [CX4945] (first compound 1 µM, partner dose 0.4 µM)",110%,99.8%,100%,105%,95.2%,102%
"C=C(c1ccc(C(=O)O)cc1)c1cc2c(cc1C)C(C)(C)CCC2(C)C [Bexarotene] + C=CCn1c(=O)c2cnc(Nc3ccc(N4CCN(C)CC4)cc3)nc2n1-c1cccc(C(C)(C)O)n1 [MK1775] (first compound 2 µM, partner dose 0.02 µM)",99.3%,84.7%,91.6%,103%,95.7%,87%
"C=C(c1ccc(C(=O)O)cc1)c1cc2c(cc1C)C(C)(C)CCC2(C)C [Bexarotene] + C[C@]1(c2nc3c(C(N)=O)cccc3[nH]2)CCCN1 [Veliparib] (first compound 2 µM, partner dose 1.4 µM)",73.6%,82.6%,85.2%,95.9%,88.1%,87.7%
"CCCS(=O)(=O)Nc1ccc(F)c(C(=O)c2c[nH]c3ncc(Cl)cc23)c1F + Oc1nc(-c2ccc(C(F)(F)F)cc2)nc2c1CSCC2 [XAV939] (first compound 0.08 µM, partner dose 2 µM)",94.5%,74%,76.6%,73.8%,81.9%,98.6%
"NC1(c2ccc(-c3nc4ccn5c(=O)[nH]nc5c4cc3-c3ccccc3)cc2)CCC1 + CS(=O)(=O)CCNCc1ccc(-c2ccc3ncnc(Nc4ccc(OCc5cccc(F)c5)c(Cl)c4)c3c2)o1 [lapatinib] (first compound 0.4 µM, partner dose 0.8 µM)",77%,82.2%,80%,54.7%,86.9%,88%
"CN(c1ncccc1CNc1nc(Nc2ccc3c(c2)CC(=O)N3)ncc1C(F)(F)F)S(C)(=O)=O + C[C@@H]1CCN(C(=O)CC#N)C[C@@H]1N(C)c1ncnc2[nH]ccc12 [CP690550] (first compound 0.08 µM, partner dose 1 µM)",91.8%,94.4%,88.9%,106%,101%,83.3%
"CN(c1ncccc1CNc1nc(Nc2ccc3c(c2)CC(=O)N3)ncc1C(F)(F)F)S(C)(=O)=O + Cc1cc(Nc2cc(N3CCN(C)CC3)nc(/C=C/c3ccccc3)n2)n[nH]1 [ENMD2076] (first compound 0.08 µM, partner dose 0.04 µM)",84.4%,94.7%,82.3%,97.5%,108%,88.6%
"CS(=O)(=O)c1ccc(C(=O)Nc2ccc(Cl)c(-c3ccccn3)c2)c(Cl)c1 [vismodegib] + c1cc(-c2cnn3cc(-c4ccc(OCCN5CCCCC5)cc4)cnc23)ccn1 [Dorsomorphin] (first compound 1 µM, partner dose 0.4 µM)",109%,73.7%,71.3%,93.8%,93.3%,92.2%
"CN(c1ncccc1CNc1nc(Nc2ccc3c(c2)CC(=O)N3)ncc1C(F)(F)F)S(C)(=O)=O + Cc1nc(Nc2ncc(C(=O)Nc3c(C)cccc3Cl)s2)cc(N2CCN(CCO)CC2)n1 [dasatanib] (first compound 0.08 µM, partner dose 0.004 µM)",69.3%,82.4%,57.7%,107%,89.4%,59.4%
"CS(=O)(=O)c1ccc(C(=O)Nc2ccc(Cl)c(-c3ccccn3)c2)c(Cl)c1 [vismodegib] + OCCn1cc(-c2cnc3nnn(Cc4ccc5ncccc5c4)c3n2)cn1 [PF04217903] (first compound 1 µM, partner dose 1 µM)",98.9%,106%,92.5%,100%,81.6%,96.5%
"CS(=O)(=O)c1ccc(C(=O)Nc2ccc(Cl)c(-c3ccccn3)c2)c(Cl)c1 [vismodegib] + CCN(CC)CCCCNc1ncc2cc(-c3cc(OC)cc(OC)c3)c(NC(=O)NC(C)(C)C)nc2n1 [PD173074] (first compound 1 µM, partner dose 0.1 µM)",108%,118%,105%,109%,111%,80.6%
"NC1(c2ccc(-c3nc4ccn5c(=O)[nH]nc5c4cc3-c3ccccc3)cc2)CCC1 + COCC[n+]1c2c(n(Cc3cnccn3)c1C)C(=O)c1ccccc1C2=O [YM155] (first compound 0.4 µM, partner dose 0.0004 µM)",77.9%,73.2%,84.9%,63%,93.3%,60%
"CCCS(=O)(=O)Nc1ccc(F)c(C(=O)c2c[nH]c3ncc(Cl)cc23)c1F + C[C@@H]1CCN(C(=O)CC#N)C[C@@H]1N(C)c1ncnc2[nH]ccc12 [CP690550] (first compound 0.08 µM, partner dose 1 µM)",92.3%,116%,85.8%,87.9%,93.6%,106%
"CCCS(=O)(=O)Nc1ccc(F)c(C(=O)c2c[nH]c3ncc(Cl)cc23)c1F + CN(NC(=O)CC(=O)NN(C)C(=S)c1ccccc1)C(=S)c1ccccc1 [STA4783] (first compound 0.08 µM, partner dose 0.006 µM)",76.9%,83.9%,43.8%,90%,45.7%,73.5%
"NC1(c2ccc(-c3nc4ccn5c(=O)[nH]nc5c4cc3-c3ccccc3)cc2)CCC1 + O=C1NC(=O)/C(=C/c2ccc(-c3ccc(F)cc3O)o2)S1 [AS252424] (first compound 0.4 µM, partner dose 1 µM)",66.1%,89.6%,79.5%,61%,100%,91.2%
"CN(c1ncccc1CNc1nc(Nc2ccc3c(c2)CC(=O)N3)ncc1C(F)(F)F)S(C)(=O)=O + CC(C)CCN1c2nc(Nc3cc(F)c(O)c(F)c3)ncc2N(C)C(=O)C1C [BID1870] (first compound 0.08 µM, partner dose 0.2 µM)",72.2%,88.1%,76%,96%,105%,72.2%
"CS(=O)(=O)c1ccc(C(=O)Nc2ccc(Cl)c(-c3ccccn3)c2)c(Cl)c1 [vismodegib] + CN(C)S(=O)(=O)c1ccc2c(c1)/C(=C/c1cc3c([nH]1)CCCC3)C(=O)N2 [SU6656] (first compound 1 µM, partner dose 0.4 µM)",92.5%,111%,89.4%,94.6%,113%,92.4%
"CCCS(=O)(=O)Nc1ccc(F)c(C(=O)c2c[nH]c3ncc(Cl)cc23)c1F + OCc1c[nH]c2ccccc12 [Indole-3-carbinol] (first compound 0.08 µM, partner dose 0.8 µM)",109%,113%,106%,94.5%,83.3%,98.9%
"NC1(c2ccc(-c3nc4ccn5c(=O)[nH]nc5c4cc3-c3ccccc3)cc2)CCC1 + CO[C@H]1C[C@@H]2CC[C@@H](C)[C@@](O)(O2)C(=O)C(=O)N2CCCC[C@H]2C(=O)O[C@H]([C@H](C)C[C@@H]2CC[C@@H](OCCO)[C@H](OC)C2)CC(=O)[C@H](C)/C=C(\C)[C@@H](O)[C@@H](OC)C(=O)[C@H](C)C[C@H](C)/C=C/C=C/C=C/1C [everolimus] (first compound 0.4 µM, partner dose 0.02 µM)",65.7%,60.3%,85.8%,52%,59.6%,69.5%
"CN(c1ncccc1CNc1nc(Nc2ccc3c(c2)CC(=O)N3)ncc1C(F)(F)F)S(C)(=O)=O + NCC(=O)Nc1ccc(-n2nc(C(F)(F)F)cc2-c2ccc3c(ccc4ccccc43)c2)cc1 [OSU03012] (first compound 0.08 µM, partner dose 1 µM)",69.6%,89.5%,64%,72.5%,79.6%,62.7%
"NC1(c2ccc(-c3nc4ccn5c(=O)[nH]nc5c4cc3-c3ccccc3)cc2)CCC1 + COc1ccc2c(c1)CCC1C2CCC2(C)C(NCCCCCCN3C(=O)C=CC3=O)CCC12 [U73122] (first compound 0.4 µM, partner dose 0.4 µM)",75.5%,85.7%,86.5%,51.6%,94.7%,94.7%
"CS(=O)(=O)c1ccc(C(=O)Nc2ccc(Cl)c(-c3ccccn3)c2)c(Cl)c1 [vismodegib] + Nc1nc(F)nc2c1ncn2[C@@H]1O[C@H](CO)[C@@H](O)[C@@H]1O [fludarabine] (first compound 1 µM, partner dose 0.2 µM)",93.7%,106%,109%,37.7%,86.9%,57.6%
"CCCS(=O)(=O)Nc1ccc(F)c(C(=O)c2c[nH]c3ncc(Cl)cc23)c1F + Cn1nnc2c(C(N)=O)ncn2c1=O [temozolomide] (first compound 0.08 µM, partner dose 2 µM)",108%,96.4%,97.1%,81.2%,89.5%,108%
"NC1(c2ccc(-c3nc4ccn5c(=O)[nH]nc5c4cc3-c3ccccc3)cc2)CCC1 + Cc1ccc(NC(=O)c2cccc(N(C)C)c2)cc1NC(=O)c1ccc(O)cc1 [ZM336372] (first compound 0.4 µM, partner dose 2 µM)",77%,94%,94.5%,84.6%,102%,97%
"CS(=O)(=O)c1ccc(C(=O)Nc2ccc(Cl)c(-c3ccccn3)c2)c(Cl)c1 [vismodegib] + CC(C)(C)c1cnc(CSc2cnc(NC(=O)C3CCNCC3)s2)o1 [SNS-032] (first compound 1 µM, partner dose 0.01 µM)",97.5%,85.8%,94.9%,103%,95.4%,126%
